Reference: the supplement of paper PMC3334620
The full ranking holds about 33,000 sequences; the median of “E-score (-0.5 to 0.5)” is about -0.04, and the highest 2% start at about 0.36. This is one part of the list.

Target: T1, Hmlalpha2 (UniProt P0CY09)
T1 sequence: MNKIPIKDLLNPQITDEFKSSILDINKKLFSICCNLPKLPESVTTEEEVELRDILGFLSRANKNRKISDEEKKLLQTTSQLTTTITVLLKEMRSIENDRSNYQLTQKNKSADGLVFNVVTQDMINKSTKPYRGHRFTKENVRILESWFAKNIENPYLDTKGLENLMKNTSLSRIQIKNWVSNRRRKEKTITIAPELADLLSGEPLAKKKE
Assay: PBM E-score (8-mer binding enrichment) (E-score (-0.5 to 0.5)); higher = stronger / more preferred TF binding; most listed sequences are background and not binding sites
Conditions: protein concentration: 200 nM; construct: GST-full length
Method: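 Universal 'all 10-mer' protein binding microarrays (Agilent AMADID 015681) probed with GST-tagged S. cerevisiae TFs (full-length or DBD) made by in vitro transcription/translation (PURExpress), about 100-200 nM. Bound TF was detected with fluorescent anti-GST. Each ungapped 8-mer (which stands for itself and its reverse complement) is scored by the PBM enrichment score (E-score), a modified Wilcoxon-Mann-Whitney statistic from -0.5 to +0.5, computed with the Universal PBM Analysis Suite. Scale: above 0.35 generally sequence-specific binding.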

| Sequence | PBM E-score |
| --- | --- |
| CTGTACCA | -0.18 |
| AATGCTGC | 0.122 |
| CACGCGTA | 0.277 |
| GACCACGA | -0.0864 |
| ACGAAGCC | -0.155 |
| ATGACGTG | 0.256 |
| TCTATGCA | 0.115 |
| ACACTAAG | 0.145 |
| GCCACGCA | -0.185 |
| AAGTGTGA | 0.0353 |
| CAAGGGGG | -0.175 |
| CCGTACAC | 0.205 |
| ATCTGGAA | -0.119 |
| AGTTACAA | 0.215 |
| AGACCAGG | -0.104 |
| ATAGTAAT | 0.187 |
| CGTCCTAC | -0.206 |
| TCCTTACA | 0.236 |
| CACATTGG | -0.105 |
| CGGCTGAA | -0.0725 |
| ATCAATCA | 0.147 |
| CCGTGTGC | -0.134 |
| TAGGTTGA | 0.0343 |
| ATCTGGAG | -0.0319 |
| CCTTCGGC | -0.267 |

| Sequence | PBM E-score |
| --- | --- |
| GCAAGACC | -0.163 |
| CGCAGCCC | -0.186 |
| GGCCGACA | -0.247 |
| GGACAGCC | -0.369 |
| CGGCTTCC | -0.213 |
| AGCGGCCG | -0.00781 |
| GCGCTAGC | -0.035 |
| AACCCTCA | -0.157 |
| ACTGAACT | -0.101 |
| AGGCTGCA | 0.0206 |
| GACCTATA | 0.118 |
| GGCCACCC | -0.351 |
| CCGGCTAG | -0.321 |
| CAGGTTGC | 0.0306 |
| GTGTATTA | 0.421 |
| GGGAGAAA | -0.209 |
| AGTGCACT | -0.142 |
| GCTTGCAC | -0.133 |
| CCTATCAC | -0.138 |
| AAACCGGC | -0.0487 |
| ATTAGGCA | 0.0917 |
| GGCGCCCC | -0.218 |
| CGAGACGA | -0.156 |
| AGGAATAT | -0.169 |
| TGCTGAAA | 0.0411 |

| Sequence | PBM E-score |
| --- | --- |
| AGCGCATC | -0.126 |
| CATCGCGG | -0.225 |
| ATGCCATG | 0.138 |
| TACAGGTA | 0.135 |
| ACGCTCCT | 0.0508 |
| CTGTCTCC | -0.275 |
| AAATCACT | 0.00442 |
| CAGGGCGG | -0.209 |
| AACAACGA | 0.157 |
| AGGTCACA | -0.088 |
| GCGGTCAC | -0.314 |
| AATGACAA | 0.209 |
| TAGGCGAA | -0.17 |
| AGGACCTA | -0.237 |
| CGCAGGCG | -0.137 |
| ACGAGACC | -0.0278 |
| CCTCGTAA | 0.317 |
| CCATGTTA | 0.458 |
| AGCGATAG | -0.277 |
| AACTTCTA | 0.0783 |
| ACAGAGAG | -0.0914 |
| AGCGTCGG | -0.0159 |
| TAATACCA | 0.155 |
| CCAGTTTA | 0.147 |
| AAGAGGGA | -0.246 |

| Sequence | PBM E-score |
| --- | --- |
| ATAGCAAC | -0.0001 |
| TCGCCGCA | -0.165 |
| CGACGCAA | -0.163 |
| AGGTGTGA | -0.154 |
| AGAGACGG | -0.124 |
| AGTCTGTC | -0.0433 |
| ACTAGTGG | -0.198 |
| TACTTATA | 0.0699 |
| AAAGATCT | 0.00927 |
| TAATTTGA | -0.0623 |
| CATGTCGA | 0.386 |
| AAACCTTT | -0.111 |
| CGCATCAC | -0.0429 |
| ATACGTTG | 0.157 |
| TCCGGCCA | -0.407 |
| ATCTCGCC | -0.262 |
| TATAGCCA | 0.0852 |
| CGGCAGTC | -0.161 |
| CGGCGGCA | -0.295 |
| CCAGTTCC | -0.263 |
| AACCAATT | 0.0231 |
| AAGCTAGT | 0.0295 |
| TCAGTCCA | -0.168 |
| CTTTGAAA | 0.0406 |
| GCTGTCCA | -0.0572 |

| Sequence | PBM E-score |
| --- | --- |
| ATCAATAA | 0.19 |
| CGCTGCGC | -0.199 |
| AAGTCGAA | -0.059 |
| CGTCAAAC | 0.0643 |
| AACCGCTA | -0.169 |
| GAGCATGA | -0.0304 |
| GAAGTATA | -0.0316 |
| CCTGCACC | -0.197 |
| CACGGTAC | 0.0827 |
| CATTATCC | 0.0855 |
| AAAGATGG | -0.0792 |
| GCGTTCTA | 0.105 |
| ATCGTTTC | -0.0304 |
| AAAACTAG | 0.133 |
| GCAAAGCC | -0.325 |
| CCAGAACA | 0.0324 |
| CGGGCGTA | -0.202 |
| CGGTCTAA | 0.00536 |
| ACTAAGTG | 0.0576 |
| TCTTGACA | 0.194 |
| GAGGAGCA | -0.269 |
| GTTCTGAA | 0.213 |
| CGGAGCGC | -0.229 |
| CAGCACCA | -0.268 |
| TAGGCTCA | -0.235 |

| Sequence | PBM E-score |
| --- | --- |
| CGATGTTC | -0.0958 |
| GGTCCGGA | -0.0474 |
| TAATAATA | 0.263 |
| CTATACAA | 0.183 |
| GAACAAGA | 0.139 |
| GCGGCGCA | -0.203 |
| ATTGGTGC | -0.156 |
| CACAACTG | 0.0134 |
| CTTGGAAC | -0.0884 |
| GGCAGCAC | -0.223 |
| CAGATCCG | -0.074 |
| AAATAGCC | -0.184 |
| CCCCTTCA | -0.233 |
| ACGTTAGT | 0.166 |
| ATCCAGAT | -0.217 |
| ACGGATGA | -0.00893 |
| TCAGCACA | 0.136 |
| GGCTAGGA | -0.206 |
| GTTCGGAA | -0.0249 |
| CCGATCGG | -0.154 |
| AATCCGCC | -0.289 |
| AAATGCTT | -0.0472 |
| CTCCATGC | -0.189 |
| GAGTCGGC | -0.289 |
| AGGGTGTG | -0.0487 |

| Sequence | PBM E-score |
| --- | --- |
| CTCTTTCA | -0.24 |
| CGTCAGAA | -0.0845 |
| ACCTTCGT | -0.207 |
| AGTGGCGC | -0.295 |
| GCGTACCA | 0.073 |
| GGCAGACC | -0.346 |
| ACTAGCCT | -0.0684 |
| ACACCCCT | -0.0328 |
| ACCAGGAA | -0.148 |
| AACCTGGT | -0.0464 |
| ACCAACAG | -0.118 |
| ACCCCGCC | -0.229 |
| CCCGCCCA | -0.232 |
| CAATCTGA | -0.03 |
| CTTTGTCC | -0.0862 |
| CAGCTCAC | -0.0549 |
| AACGACGG | 0.0595 |
| CGCGAGTA | 0.108 |
| CCACATTA | 0.0818 |
| ACGGAGGA | -0.127 |
| CCTCGGGC | -0.178 |
| CATTGTGA | -0.0118 |
